Measured values published in article PMC545490, “Mapping and mutation of the conserved DNA polymerase interaction motif (DPIM) located in the C-terminal domain of fission yeast DNA polymerase δ subunit Cdc27” (BMC Molecular Biology, 2004).
Results are given in words; binding and its absence hold for the method and conditions named. Some binding calls cover weakened binding; strength is not graded here. For part of these data: Where a sequence is shown, tags or fusion partners need not be part of it.

Amino acid sequences for entries named in this document (tags omitted). Residues count along the entry.
UniProt P09884, residues 291-540: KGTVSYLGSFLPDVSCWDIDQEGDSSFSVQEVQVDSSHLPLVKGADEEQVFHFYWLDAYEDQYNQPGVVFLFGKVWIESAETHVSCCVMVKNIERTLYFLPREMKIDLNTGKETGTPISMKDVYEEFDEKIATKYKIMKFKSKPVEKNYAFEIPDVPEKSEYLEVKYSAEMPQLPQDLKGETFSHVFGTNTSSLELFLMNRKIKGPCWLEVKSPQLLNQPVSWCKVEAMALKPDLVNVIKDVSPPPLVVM

T1: LexA-Pol1-278-527 (S. pombe, UniProt P28040 278-527)
T1 construct: Pol1, catalytic subunit of DNA polymerase α, S. pombe, amino acids 278–527; source: yeast two-hybrid fusion (pBTM116, S. cerevisiae CTY10-5d)
T1 sequence (looked up): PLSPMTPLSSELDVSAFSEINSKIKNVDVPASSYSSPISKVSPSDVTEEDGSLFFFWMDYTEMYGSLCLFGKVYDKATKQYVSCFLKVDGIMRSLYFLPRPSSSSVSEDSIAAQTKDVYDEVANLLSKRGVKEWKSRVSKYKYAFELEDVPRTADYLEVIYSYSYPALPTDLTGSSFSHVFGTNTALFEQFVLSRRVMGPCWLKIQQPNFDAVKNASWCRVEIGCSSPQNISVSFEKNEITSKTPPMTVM

T2: Cdc27 co-expressed as bridge in the two-hybrid system (S. pombe) (UniProt P30261)
T2 sequence: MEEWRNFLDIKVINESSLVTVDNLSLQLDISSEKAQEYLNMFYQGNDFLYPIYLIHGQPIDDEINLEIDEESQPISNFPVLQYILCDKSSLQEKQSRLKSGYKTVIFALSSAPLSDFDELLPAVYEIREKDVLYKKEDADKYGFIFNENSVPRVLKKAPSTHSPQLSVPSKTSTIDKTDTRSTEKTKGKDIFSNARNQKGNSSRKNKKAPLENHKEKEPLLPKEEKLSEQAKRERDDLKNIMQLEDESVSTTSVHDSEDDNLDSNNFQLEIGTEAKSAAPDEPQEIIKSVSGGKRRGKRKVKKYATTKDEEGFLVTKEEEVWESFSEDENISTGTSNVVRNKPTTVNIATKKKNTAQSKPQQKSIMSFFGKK


Experiments:
[1] = biological target: T1, LexA-Pol1-278-527; assay: two-hybrid; Gal4 AD-Pcn1 prey and LexA-Pol1(278–527) bait with Cdc27 co-expressed as bridge; β-galactosidase activity
[2] = biological target: T1, LexA-Pol1-278-527; assay: two-hybrid; Gal4 AD prey (pACT2) and LexA bait (pBTM116) in S. cerevisiae lexA op-lacZ strain CTY10-5d; β-galactosidase activity in Miller units
[3] = biological target: LexA fusion of amino acids 291–540 of the human Pol α catalytic subunit (human) (UniProt P09884); assay: as above
[4] = biological target: T2, Cdc27 co-expressed as bridge in the two-hybrid system (S. pombe); assay: two-hybrid; Gal4 AD-Pcn1 prey and LexA-Pol1(278–527) bait with Cdc27 co-expressed as bridge; β-galactosidase activity

binding [2] | Binder | also measured
 | Cdc27 co-expressed as bridge in the two-hybrid system (protein, UniProt P30261 1-372) MEEWRNFLDIKVINESSLVTVDNLSLQLDISSEKAQEYLNMFYQGNDFLYPIYLIHGQPIDDEINLEIDEESQPISNFPVLQYILCDKSSLQEKQSRLKSGYKTVIFALSSAPLSDFDELLPAVYEIREKDVLYKKEDADKYGFIFNENSVPRVLKKAPSTHSPQLSVPSKTSTIDKTDTRSTEKTKGKDIFSNARNQKGNSSRKNKKAPLENHKEKEPLLPKEEKLSEQAKRERDDLKNIMQLEDESVSTTSVHDSEDDNLDSNNFQLEIGTEAKSAAPDEPQEIIKSVSGGKRRGKRKVKKYATTKDEEGFLVTKEEEVWESFSEDENISTGTSNVVRNKPTTVNIATKKKNTAQSKPQQKSIMSFFGKK | binding [1]: binds
binds | Gal4-Cdc27-273-352 (wild type) (domain or fragment, UniProt P30261 273-352) TEAKSAAPDEPQEIIKSVSGGKRRGKRKVKKYATTKDEEGFLVTKEEEVWESFSEDENISTGTSNVVRNKPTTVNIATKK | 
binds | Gal4-Cdc27-273-352-P3 (domain or fragment, UniProt P30261 273-352) TEAKSAAPDEPQEIIKSVSGGAAAGKRKVKKYATTKDEEGFLVTKEEEVWESFSEDENISTGTSNVVRNKPTTVNIATKK | 
binds | Gal4-Cdc27-273-352-P5 (domain or fragment, UniProt P30261 273-352) TEAKSAAPDEPQEIIKSVSGGKRRGKRKVAAYATTKDEEGFLVTKEEEVWESFSEDENISTGTSNVVRNKPTTVNIATKK | 
no binding | Gal4-Cdc27-273-352-Q1 (domain or fragment, UniProt P30261 273-352) TEAKSAAPDEPQEIIKSVSGGKRRGKRKVKKYATTKAAAAALVTKEEEVWESFSEDENISTGTSNVVRNKPTTVNIATKK | 
no binding | Gal4-Cdc27-273-352-P2 (domain or fragment, UniProt P30261 273-352) TEAKSAAPDEPQEIIKSVSGGKRRGKRKVKKYATTKDEEAALVTKEEEVWESFSEDENISTGTSNVVRNKPTTVNIATKK | 
no binding | Gal4-Cdc27-273-352-P4 (domain or fragment, UniProt P30261 273-352) TEAKSAAPDEPQEIIKSVSGGKRRGAAAVKKYATTKDEEGFLVTKEEEVWESFSEDENISTGTSNVVRNKPTTVNIATKK | 
no binding | Gal4-Cdc27-273-352-P1 (domain or fragment, UniProt P30261 273-352) TEAKSAAPDEPQEIIKSVSGGKRRGKRKVKKYATTKAAAGFLVTKEEEVWESFSEDENISTGTSNVVRNKPTTVNIATKK | 
no binding | Gal4-Cdc27-273-352-P6 (domain or fragment, UniProt P30261 273-352) TEAKSAAPDEPQEIIKSVSGGKRRGKRKVKKYATTKDEEGFLVTKAAAVWESFSEDENISTGTSNVVRNKPTTVNIATKK | 
binds | Gal4 activation domain fusion of the entire C-terminal domain of human p66 (amino acids 253–466) (domain or fragment, UniProt Q15054 253-466) SEQAVKEEKIVEQPTVSVTEPKLATPAGLKKSSKKAEPVKVLQKEKKRGKRVALSDDETKETENMRKKRRRIKLPESDSSEDEVFPDSPGAYEAESPSPPPPPSPPLEPVPKTEPEPPSVKSSSGENKRKRKRVLKSKTYLDGEGCIVTEKVYESESCTDSEEELNMKTSSVHRPPAMTVKKEPREERKGPKKGTAALGKANRQVSITGFFQRK | binding [3]: binds
binds | Gal4 activation domain fusion of the C-terminal 111 amino acids of human p66 (356–466) (domain or fragment, UniProt Q15054 356-466) SPPLEPVPKTEPEPPSVKSSSGENKRKRKRVLKSKTYLDGEGCIVTEKVYESESCTDSEEELNMKTSSVHRPPAMTVKKEPREERKGPKKGTAALGKANRQVSITGFFQRK | binding [3]: binds
 | Gal4 AD-Pcn1 (protein, UniProt Q03392 1-260) MLEARFQQAALLKKLLDAIKELVTDANFDCNDNGISLQAMDSSHVALVSMLIKSDGFEPYRCDRNIALGINLNALSKVLRCAQNEDLVTLKAEDTPEVLNLVFESEKNDRISDYDVKLMDIDQEHLGIPDIEYDATITMPAAEFQRITRDLLTLSDSVTINASKEGVRFSCKGDIGNGSTTLKQHTDLSDQDQSIEISLTQAVTLTFSLKYLAQFTKATPLATRVTLSMSNDVPLLVEYKMESGFLRFYLAPKIGEEDEE | binding [4]: binds
binds | GKRRGKRKVKKYATTKDEEGFLVTKEEEVWESFSEDENIS (domain or fragment, UniProt P30261 293-332) [Gal4 AD-Cdc27 (amino acids 293–332)] | 
